In article PMC12056172 (Nature Communications, 2025):

Molecular target: the molecule itself
Assay: SEC

B1: SNAP-tagged DAAM1 FH2-COOH (+MIC) (domain or fragment)
chain: not shown
modifications: SNAP tag labelled with a fluorophore (printed as DAAM1-SNAP-Alexa488 and as DAAM1-SNAP-Atto488)
B1: binds.
